The source gives no read counts; variants with many changes may rest on few reads.
B1: OR4K15 (parent)
chain: GUUAACGGUCAUAGGCCAUGGAAACUAGGAGCACCAUUUCGCUGCCAGUGAAGAAAUGAACAAAGAAAAUCUGGGCCAGGCAGGCAUCAAAAGAAAUAGUCUUGCGCUCAACCAGAAAGUCUGUAAUCAUUUUAAGGGUA

Variants of: B1
Test: self-cleavage, relative activity (ratio to wild type); higher = more cleavage; in vitro, sequencing; the parent is a self-cleaving ribozyme

Question: Which self-cleavage does the source give for A23G A56G A96G A129U here?
Answer: 0.68

Question: For A5G U9A U120C, which self-cleavage is on record?
Answer: 0.55

Question: Which self-cleavage does the source give for C32A A59G A117G here?
Answer: 1.31

Question: Which self-cleavage does the source give for U9C A24G A52G A59G A67G here?
Answer: 1.69

Question: Which self-cleavage does the source give for A11G A23G G48A U87A U108C here?
Answer: 0.02

Question: For U49C A67G A91U, which self-cleavage is on record?
Answer: 1.49

Question: Which self-cleavage does the source give for U9C A52U U120A here?
Answer: 1.45

Question: Which self-cleavage does the source give for U43A A56U A66G U139C here?
Answer: 0.91

Question: For A52G A56G A59G, which self-cleavage is on record?
Answer: 0.76

Question: Which self-cleavage does the source give for A52G A89C A98G here?
Answer: 0.15

Question: For U2C A68G A90G, which self-cleavage is on record?
Answer: 0.55

Question: With U38C A59G A68U as the variant, how does the self-cleavage read?
Answer: 0.85

Question: With G20A A95G U127C as the variant, how does the self-cleavage read?
Answer: 1.58

Question: With U39A A54G A68G as the variant, how does the self-cleavage read?
Answer: 1.07

Question: With U19A U57C A69G as the variant, how does the self-cleavage read?
Answer: 0.8

Question: Which self-cleavage does the source give for U37G A95G A96G U120A here?
Answer: 1.71

Question: With A13U A110U A116G U139C as the variant, how does the self-cleavage read?
Answer: 0.53

Question: Which self-cleavage does the source give for G21C A62U U108C A118G here?
Answer: 0.01

Question: Which self-cleavage does the source give for A78G A95G A110G here?
Answer: 0.1

Question: Which self-cleavage does the source give for G65U A94G U100C here?
Answer: 2.07

Question: With A23G A110G A117G C128A as the variant, how does the self-cleavage read?
Answer: 0.14

Question: With U26C G75C A129G as the variant, how does the self-cleavage read?
Answer: 0.08

Question: With U9C A33G A52G A63G A140G as the variant, how does the self-cleavage read?
Answer: 1.87

Question: Which self-cleavage does the source give for U3C U108C U122C here?
Answer: 0

Question: For A60G A89U A116G U120C U130C G137A, which self-cleavage is on record?
Answer: 0.2

Question: With U2C A56C A95G A117U as the variant, how does the self-cleavage read?
Answer: 0.78

Question: Which self-cleavage does the source give for U2A U70C A92G here?
Answer: 0.9

Question: With A54U A96U A135U as the variant, how does the self-cleavage read?
Answer: 2.14

Question: With G44C A56G U70C A126U as the variant, how does the self-cleavage read?
Answer: 0.43

Question: Which self-cleavage does the source give for G29A G74A A95G here?
Answer: 0.33

Question: Which self-cleavage does the source give for G7A U49A A56G A94G here?
Answer: 0.53

Question: For A47G A54G C128A, which self-cleavage is on record?
Answer: 0.33

Question: For U49A A60G A95G U103C U120C, which self-cleavage is on record?
Answer: 0.33

Question: For A55G U87C G136U, which self-cleavage is on record?
Answer: 1.72

Question: For A56G U57A A59G U102G A117G U132C, which self-cleavage is on record?
Answer: 0.27

Question: Which self-cleavage does the source give for U19C A33G U122C here?
Answer: 0.49

Question: With U2C U39C U49A A60G A62U A69G A110C as the variant, how does the self-cleavage read?
Answer: 0.23

Question: With A30U G99A A125G as the variant, how does the self-cleavage read?
Answer: 0.26

Question: With A51G U100A U122C as the variant, how does the self-cleavage read?
Answer: 0.66

Question: Which self-cleavage does the source give for G14U A23G A52G A96U U120C here?
Answer: 1.06

Question: For U2A U37C A94U A111G, which self-cleavage is on record?
Answer: 0.12

Question: Which self-cleavage does the source give for A51U A78C U131C here?
Answer: 0.19

Question: For U2A A22G A89G A95G, which self-cleavage is on record?
Answer: 0.88

Question: Which self-cleavage does the source give for A24G A78G A91U A140G here?
Answer: 0.14

Question: With A5U A82G A92G as the variant, how does the self-cleavage read?
Answer: 0.55

Question: For A59U A86U A117G, which self-cleavage is on record?
Answer: 0.94

Question: For U70C U87A U127C, which self-cleavage is on record?
Answer: 0.27

Question: With U3C U39A A52G A55G A95G as the variant, how does the self-cleavage read?
Answer: 0.3

Question: For U19C U57C A66G A95G, which self-cleavage is on record?
Answer: 0.7

Question: For U38C A51G U97C U108C, which self-cleavage is on record?
Answer: 0.02

Question: Which self-cleavage does the source give for A18G A114G U130C here?
Answer: 0.22

Question: Which self-cleavage does the source give for U3C A78U A118G U122A here?
Answer: 0.23

Question: With A60G A96G U120C as the variant, how does the self-cleavage read?
Answer: 0.2

Question: Which self-cleavage does the source give for A24G A64G A91G U102C here?
Answer: 1.57

Question: Which self-cleavage does the source give for U2C A52U G137A here?
Answer: 1.79

Question: With A111G A114G A126U as the variant, how does the self-cleavage read?
Answer: 0.01

Question: Which self-cleavage does the source give for A59C U97C U102A here?
Answer: 0.62

Question: Which self-cleavage does the source give for A60G U102C U120A here?
Answer: 2.52

Question: For A11G A59G A60G U87A, which self-cleavage is on record?
Answer: 0.38

Question: With C42U A62G U108A U131C as the variant, how does the self-cleavage read?
Answer: 0.01

Question: For G75C A91G U130C, which self-cleavage is on record?
Answer: 0.08

Question: For G14A U43C A60G, which self-cleavage is on record?
Answer: 1.58

Question: With A11U A24C U39A U49C A91G U133A as the variant, how does the self-cleavage read?
Answer: 0.51

Question: For A64G A68G U120A A129U, which self-cleavage is on record?
Answer: 0.44

Question: Which self-cleavage does the source give for A67G U87C A134G here?
Answer: 1.25

Question: Which self-cleavage does the source give for A69G A118G A140G here?
Answer: 1.87

Question: For A5C C6A A91G A92G, which self-cleavage is on record?
Answer: 1.65

Question: For A22G A51U U100C, which self-cleavage is on record?
Answer: 2.11

Question: Which self-cleavage does the source give for U57G A69G A86G U87C U133C here?
Answer: 0.47

Question: Which self-cleavage does the source give for G21A A62G A92G A95U A110G U120C U122C here?
Answer: 0.06

Question: For U2C A64G A98G A126G A129G, which self-cleavage is on record?
Answer: 0.15

Question: With U37C U49C A66U as the variant, how does the self-cleavage read?
Answer: 1.86

Question: Which self-cleavage does the source give for A33G A63G A69G here?
Answer: 1.02

Question: With A96G U122C U130C as the variant, how does the self-cleavage read?
Answer: 1.21

Question: For U72A A82U A118G, which self-cleavage is on record?
Answer: 0.07

Question: For A33G A98G U127C, which self-cleavage is on record?
Answer: 0.1

Question: For A24G A52G U57A A68G A111G, which self-cleavage is on record?
Answer: 0.03

Question: For U37C A60U U122A, which self-cleavage is on record?
Answer: 1.25

Question: Which self-cleavage does the source give for A82U A86C U108C here?
Answer: 0.01

Question: With G93C A96C U102A U120C as the variant, how does the self-cleavage read?
Answer: 0.13

Question: Which self-cleavage does the source give for A23G G28A A64G A66G A96G U100C U131C here?
Answer: 1.2

Question: With U39C A63U A94G A96G A116G as the variant, how does the self-cleavage read?
Answer: 1.02

Question: With A36G A54U U57A U72C as the variant, how does the self-cleavage read?
Answer: 0.28

Question: For A4G U9C U72C, which self-cleavage is on record?
Answer: 0.65

— the RNAGym collection of RNA variant scans (doi:10.7554/elife.90254)
